Results from paper PMC6711944.
These are yes or no findings as the source states them, for the method shown. Some entries that bind do so weakly or less than the wild type.

Sequences of proteins named here, by UniProt entry; tags and fusion partners are left off. A change or cut given only in a name is not applied to a line headed by its entry. A line that says so, or that is headed by a name, gives the form on record, which may keep a tag or linker. Residues count along the entry.
UniProt O02741: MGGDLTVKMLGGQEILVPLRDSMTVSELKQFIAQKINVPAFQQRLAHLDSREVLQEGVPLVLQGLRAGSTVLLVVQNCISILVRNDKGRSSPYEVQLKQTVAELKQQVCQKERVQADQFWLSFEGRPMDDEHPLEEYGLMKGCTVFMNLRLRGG
bISG15 with the first two linker residues (Gln76, Asn77) converted to alanine (O02741, form named): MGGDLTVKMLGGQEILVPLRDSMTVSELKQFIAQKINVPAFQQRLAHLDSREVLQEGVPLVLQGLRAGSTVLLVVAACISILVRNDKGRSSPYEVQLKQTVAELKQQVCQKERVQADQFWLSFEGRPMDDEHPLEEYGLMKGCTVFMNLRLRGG
UniProt P05161, residues 1-157: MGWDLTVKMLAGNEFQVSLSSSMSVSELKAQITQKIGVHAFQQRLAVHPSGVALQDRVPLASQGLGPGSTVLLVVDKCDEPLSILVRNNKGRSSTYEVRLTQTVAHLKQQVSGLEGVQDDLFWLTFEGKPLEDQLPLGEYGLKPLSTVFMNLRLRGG
murine ISG15 (Q64339, residues 1-155): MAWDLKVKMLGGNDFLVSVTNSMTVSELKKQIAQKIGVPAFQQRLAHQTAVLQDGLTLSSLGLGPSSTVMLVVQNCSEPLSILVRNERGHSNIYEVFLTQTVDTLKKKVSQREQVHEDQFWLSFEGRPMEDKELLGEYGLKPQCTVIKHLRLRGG
mISG15 with the first two linker residues (Gln74, Asn75) converted to alanine (Q64339, form named): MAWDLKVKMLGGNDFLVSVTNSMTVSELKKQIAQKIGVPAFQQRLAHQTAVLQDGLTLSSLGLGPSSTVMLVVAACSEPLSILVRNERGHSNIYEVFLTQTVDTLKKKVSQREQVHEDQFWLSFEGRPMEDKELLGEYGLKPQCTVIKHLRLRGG
mISG15-L10A (Q64339, form named): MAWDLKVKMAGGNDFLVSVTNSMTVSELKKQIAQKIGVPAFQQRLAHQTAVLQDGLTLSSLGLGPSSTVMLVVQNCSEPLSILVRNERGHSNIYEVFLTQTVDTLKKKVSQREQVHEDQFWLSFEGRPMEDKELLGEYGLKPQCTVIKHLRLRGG

Experiments:
bovine ISG15 (bovine) [1] = biological target: bovine ISG15 (bovine) (UniProt O02741); experiment: SEC; both purified
human ISG15 (human) = human ISG15 (human) (UniProt P05161); experiment: SEC; both purified
murine ISG15 (murine) [2] = biological target: murine ISG15 (murine) (UniProt Q64339); experiment: SEC; both purified
bovine ISG15 (bovine) [3] = biological target: bovine ISG15 (bovine) (UniProt O02741); experiment: crystal structure; crystal structures of NS1B-NTR in complex with mISG15, cISG15 or bISG15; both purified
murine ISG15 (murine) [4] = biological target: murine ISG15 (murine) (UniProt Q64339); experiment: as above
[5] = biological target: bISG15 with the first two linker residues (Gln76, Asn77) converted to alanine (bovine) (UniProt O02741); experiment: ITC; isothermal titration calorimetry of NS1B-NTR and ISG15 proteins; which was titrated and the conditions are not told in the text shown; both purified
bISG15-L10A (bovine) = bISG15-L10A (bovine) (UniProt O02741); experiment: as above
[6] = biological target: mISG15 with the first two linker residues (Gln74, Asn75) converted to alanine (murine) (UniProt Q64339); experiment: as above
mISG15-L10A (murine) = mISG15-L10A (murine) (UniProt Q64339); experiment: as above

B1: NS1B-NTR, containing the 103 N-terminal residues of NS1B (influenza B virus NS1 protein) (domain or fragment, UniProt P03502 1-103)
chain: MADNMTTTQIEVGPGATNATINFEAGILECYERFSWQRALDYPGQDRLHRLKRKLESRIKTHNKSEPENKRMSLEERKAIGVKMMKVLLFMDPSAGIEGFEPY
binding (bovine ISG15 (bovine) [1]): binds
binding (human ISG15 (human)): binds
binding (murine ISG15 (murine) [2]): binds
binding (bovine ISG15 (bovine) [3]): binds
binding (murine ISG15 (murine) [4]): binds
binding [5]: binds
binding (bISG15-L10A (bovine)): no binding
binding [6]: binds
binding (mISG15-L10A (murine)): no binding
